Paper PMC4336329 (PLoS ONE, 2015)
In all, about 310,000 compounds went through this assay and about 14,000 (4.5%) showed an effect of 50% or more. The effect is printed as a negative number. The list shows a part of the results.

biological target: human ether-à-go-go-related gene (hERG) potassium channel (human, UniProt Q12809); experiment: primary screen, population patch clamp on CHO cells stably expressing hERG
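Further: peak tail current of the secondary pulse compared with the same well before compound.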

human ether-à-go-go-related gene (hERG) potassium channel, sequence (Q12809 whole entry, looked up): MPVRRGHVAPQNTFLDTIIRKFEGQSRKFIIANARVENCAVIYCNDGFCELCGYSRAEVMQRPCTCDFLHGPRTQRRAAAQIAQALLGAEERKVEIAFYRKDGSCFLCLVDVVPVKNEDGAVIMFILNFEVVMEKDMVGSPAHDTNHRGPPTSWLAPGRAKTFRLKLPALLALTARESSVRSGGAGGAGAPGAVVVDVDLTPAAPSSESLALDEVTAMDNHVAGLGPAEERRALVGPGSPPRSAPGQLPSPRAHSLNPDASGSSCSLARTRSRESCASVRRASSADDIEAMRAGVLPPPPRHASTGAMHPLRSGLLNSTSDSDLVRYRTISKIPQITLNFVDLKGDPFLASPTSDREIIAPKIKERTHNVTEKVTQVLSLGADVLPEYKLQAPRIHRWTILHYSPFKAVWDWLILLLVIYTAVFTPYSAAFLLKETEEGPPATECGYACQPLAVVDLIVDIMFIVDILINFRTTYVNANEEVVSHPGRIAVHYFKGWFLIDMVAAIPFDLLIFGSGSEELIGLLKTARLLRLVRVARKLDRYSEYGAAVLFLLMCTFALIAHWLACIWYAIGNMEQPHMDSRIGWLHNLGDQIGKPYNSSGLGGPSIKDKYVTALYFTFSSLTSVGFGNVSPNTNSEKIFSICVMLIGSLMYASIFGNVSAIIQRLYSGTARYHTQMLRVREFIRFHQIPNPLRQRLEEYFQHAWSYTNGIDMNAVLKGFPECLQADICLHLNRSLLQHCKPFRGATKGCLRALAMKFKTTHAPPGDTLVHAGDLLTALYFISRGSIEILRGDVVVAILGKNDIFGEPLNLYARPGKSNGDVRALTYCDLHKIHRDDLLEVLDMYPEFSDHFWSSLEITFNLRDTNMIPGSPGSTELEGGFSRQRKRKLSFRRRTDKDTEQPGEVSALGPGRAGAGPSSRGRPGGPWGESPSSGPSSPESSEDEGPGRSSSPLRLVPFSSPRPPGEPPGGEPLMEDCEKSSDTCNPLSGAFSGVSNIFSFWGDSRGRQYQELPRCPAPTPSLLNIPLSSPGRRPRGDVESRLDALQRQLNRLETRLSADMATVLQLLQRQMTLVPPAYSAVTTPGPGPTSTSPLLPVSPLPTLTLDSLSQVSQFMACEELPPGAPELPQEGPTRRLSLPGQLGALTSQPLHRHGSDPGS

SMILES | hERG current change (%, negative = inhibition) at 10uM
O=Cc1cc(CCC(=O)O)ccc1O | 7.65%
Cc1ccc(S(=O)(=O)N2CCCC2C(=O)NCc2ccc3c(c2)OCO3)cc1 (stereo not drawn) | -27.2%
Cc1ccc(NC(=O)CN2C(=O)N/C(=C/c3ccc4c(c3)OCCO4)C2=O)cc1 | 17.1%
CCCOc1ccc(C(=O)Nc2ccc(NC(=O)c3cccs3)cc2)cc1 | 15.9%
O=C(Nc1ncc(Cc2ccccc2Cl)s1)c1ccc(-c2cccc([N+](=O)[O-])c2)o1 | 14.5%
O=C(Nc1cccc(F)c1)N1CCN(C/C=C/c2ccccc2)CC1 | -59%
COc1ccccc1C1C2=C(CC(C)(C)CC2=O)Nc2nnnn21 (stereo not drawn) | 20.7%
CCOc1ccccc1Nc1ncccc1C(=O)N1CCCC1 | 0.397%
O=C(Nc1cnn(Cc2ccccc2)c1)c1cc2nc(-c3ccco3)cc(C(F)(F)F)n2n1 | 7.2%
CCOc1cc(C(=O)Nc2ncccn2)cc(OCC)c1OCC | 11.2%
Cc1ccc(S(=O)(=O)N2CCC(=O)N(C(COC(=O)Nc3ccccc3)Cc3ccccc3)CC2)cc1 (stereo not drawn) | 2.51%
COc1ccc2c(C)c(CCC(=O)NCCCN3CCCC3=O)c(=O)oc2c1C | 1.56%
Cc1ccc(S(N)(=O)=O)cc1NC(=O)c1ccc2c3c(cccc13)CC2 | 7.83%
COc1cccc(CN(C)C(=O)c2csc3c2CCCC3)c1OC | -7.76%
CC(=O)Oc1cccc(C(=O)Nc2ccc3c(c2)C(=O)N(CC2CCCO2)C3=O)c1 (stereo not drawn) | 13.7%
CCN(C1CCCCC1)S(=O)(=O)c1cc(C)ccc1OC | -19.8%
Clc1c2c(nc3ccccc13)CCC2 | 16.4%
C=C(C)CSc1nnc(-c2ccc(C)cc2)n1N | 10.3%
Cc1c(-n2c(-c3ccccc3Cl)n[nH]c2=S)c(=O)n(-c2ccccc2)n1C | 22%

SMILES | hERG current change (%, negative = inhibition) at 10uM
COc1ccccc1/C=C/C(=O)OC(C)CN1CCCCC1.Cl (stereo not drawn) | -1.44%
O=C(CN(c1ccc([N+](=O)[O-])cc1)S(=O)(=O)c1ccccc1)N1CCCCC1 | -61.9%
O=C(c1ccco1)N1CCN(c2ccc(Cl)cc2)CC1 | -40.7%
O=C(Nn1cc(C(=O)Nc2ccc(F)cc2F)c2ccccc2c1=O)c1cnccn1 | -2.17%
COCCCNC(=O)CN(CCc1ccccc1)S(=O)(=O)c1ccc(OC)cc1 | -26.5%
Cc1c(S(=O)(=O)Nc2cccc3ccccc23)c(=O)n(C)c(=O)n1C | 6.97%
O=C(O)C(Cl)Cl | 11.6%
Cc1nn(Cc2ccccc2)c(C)c1C=C1C(=O)NC(=S)NC1=O | 5.27%
CN(CC(=O)Nc1ccc2c(c1)OCO2)S(=O)(=O)c1cccs1 | -26.9%
CC(=O)N1CCOc2ccc(S(=O)(=O)N3CCN(c4cccc(C(F)(F)F)c4)CC3)cc21 | 7.8%
Cc1ccc2c(c1)CCCN2C(=O)c1cc(C)on1 | 5.99%
c1ccc(Cc2nnc3n2N=C(c2ccccc2)CS3)cc1 | -44.1%
CCC1COCCS(=O)(=O)N1Cc1ccc(C)cc1 (stereo not drawn) | -1.07%
O=C(c1cc(-c2ccc(Br)cc2)on1)N1CCOCC1 | 1.38%
Cc1c(N2C(=O)CSC23C(=O)Nc2ccccc23)c(=O)n(-c2ccccc2)n1C (stereo not drawn) | 4.6%
COc1cc([N+](=O)[O-])cc2sc(NC(=O)C3CC3)nc12 | 14.5%
Cc1ccccc1OCC(=O)Nc1ccc2c(c1)OCCO2 | -5.02%
CC(O)c1nc2ccccc2n1Cc1nnc(-c2ccc(Cl)cc2)o1 (stereo not drawn) | 3.53%
COc1ccc(CN2C(=NC(=O)c3ccccc3)SC3CS(=O)(=O)CC32)cc1 (stereo not drawn) | 32.1%

SMILES | hERG current change (%, negative = inhibition) at 10uM
CC(=O)C1=C(O)C(=O)N(c2ccc(Br)cn2)C1c1ccccc1F (stereo not drawn) | 10.6%
O=C(NCc1cn2ccccc2n1)c1ccco1 | 5.06%
CCOC(=O)CSc1nnc(SCCN2C(=O)c3ccccc3C2=O)s1 | -15.4%
CCC(=O)OC1(C)C(=O)C2=COC(c3ccc(OC)cc3)=CC2=C(Br)C1=O (stereo not drawn) | 1.2%
O=C(CCN1C(=O)C2C3C=CC(C4CC34)C2C1=O)Oc1cccc2cccnc12 (stereo not drawn) | -11.1%
CCN(CC)C(=O)c1ccc(N2C(=O)C3CC=C(Cl)CC3C2=O)cc1 (stereo not drawn) | 8.28%
O=C(Nc1ccccc1)c1c2c(nc3ccccc13)CCCC2 | -0.42%
FC(F)(F)c1cc(NCc2cccs2)n2ncnc2n1 | -3.38%
CCCOc1ccc(-c2c(C(=O)N/N=C/c3cccnc3)nnn2-c2nonc2N)cc1 | -1.38%
CCCn1c(N2CCN(CC(=O)c3c[nH]c4ccccc34)CC2)nc2c1c(=O)[nH]c(=O)n2C | -25.1%
CCOC(=O)c1ccc(NC(=O)c2cc(C)nc3ccccc23)cc1 | 21.7%
Cc1noc(C(=O)N2CCN(c3ccccc3)CC2)c1Cl | 6.13%
COc1ccc(Nc2ccc(Nc3ccc(OC)cc3)nn2)cc1 | 18.6%
N#Cc1ccc(NC(=O)Cn2cnc(S(=O)(=O)N3CCc4ccccc43)c2)cc1 | -4.98%
CC(=O)NCCC(=O)NCC1(N(C)Cc2ccccc2)Cc2ccccc2C1 | 16.6%
CCCCNC(=O)C(=O)NCC1CCCN1S(=O)(=O)c1cccs1 (stereo not drawn) | -7.61%
Cc1c(CC(=O)NCC(=O)O)c(=O)oc2cc3c(cc12)CCC(C)(C)O3 | 8.47%
CC(COc1ccc(C(C)C)cc1)NC(=O)c1ccc(Br)o1 (stereo not drawn) | 3.57%
CC(C)C(C(=O)NCC1CCCO1)N(Cc1ccco1)C(=O)CNS(=O)(=O)c1ccc(F)cc1 (stereo not drawn) | -7.07%
